Results as given in the supplement of paper PMC4967469.
IC50 is the fitted dose that halves viability relative to control wells, and lower means more sensitive; where the fit passes the top or lowest dose, that dose stands as a limit. AUC is the area under the same curve over the 256-fold range up to the top dose, as a fraction; values near 1 show little effect. For some of these results: Where the top dose is marked as inferred, it comes from the curve model; the source does not state it. For some of these results: Where an entry number is given, a second screen of the drug exists; the two often differ.

Experiments:
Experiment in all cases: Viability of human cancer cell lines after 72 h of drug (GDSC screen)
[1] = compound: Cc1cccc(-c2[nH]c(C(C)(C)C)nc2-c2ccc3c(c2)OCO3)n1 [SB-505124]; details: top dose 10 µM; top dose inferred
Description: (§1)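 Human cancer cell lines in 384-well plates, medium with 10% serum, drug for 72 h over a 256-fold dose range (nine 2-fold or five 4-fold steps up to the top dose). Adherent lines were fixed and stained with the nucleic acid dye Syto60, suspension lines read with resazurin; signal relative to control wells, capped at 0 and 100%. One two-parameter sigmoid per drug and line, fitted in a mixed model over all curves with the slope shared within a line.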

[2] = compound: Oc1cccc(-c2nc(N3CCOCC3)c3oc4ncccc4c3n2)c1 [PI-103]; details: top dose 10.24 µM
Description: as §1

[3] = compound: CCn1c(-c2nonc2N)nc2c(C#CC(C)(C)O)ncc(OC[C@H]3CCCNC3)c21 [GSK690693]; details: top dose 10.24 µM; top dose inferred
Description: as §1

[4] = compound: CC1=C(/C=C/C(C)=C/C=C/C(C)=C/C(=O)O)C(C)(C)CCC1 [Tretinoin]; details: top dose 10 µM; top dose inferred
Description: as §1

[5] = compound: COc1cc2c(NC3CCN(C(C)C)CC3)nc(C3CCCCC3)nc2cc1OCCCN1CCCC1 [UNC0638]
Description: as §1

[6] = compound: COc1ccc(N(C(=O)Oc2c(C)cccc2C)c2ccnc(Nc3ccc(N4CCN(C)CC4)cc3)n2)c(OC)c1 [WH-4-023]; details: top dose 5.12 µM; top dose inferred
Description: as §1

[7] = compound: O=C(NCCCNc1nc(Nc2cccc(NC(=O)N3CCCC3)c2)ncc1I)c1cccs1 [BX-795]; details: top dose 5 µM; top dose inferred
Description: as §1

[8] = top dose 20 µM, screen: GDSC drug entry 1236, top dose inferred
[9] = top dose 40 µM, screen: GDSC drug entry 245

| Cell Line | AUC [1] | IC50 [1] [µM] | AUC [2] | IC50 [2] [µM] | AUC [3] | IC50 [3] [µM] | AUC [4] | IC50 [4] [µM] | AUC [5, 8] | IC50 [5, 8] [µM] | AUC [5, 9] | IC50 [5, 9] [µM] | AUC [6] | IC50 [6] [µM] | AUC [7] | IC50 [7] [µM] |
| --- | --- | --- | --- | --- | --- | --- | --- | --- | --- | --- | --- | --- | --- | --- | --- | --- |
| NCI-H1838 (lung adenocarcinoma, adherent) | 0.977 | > 10 | 0.937 | > 10.2 | 0.985 | > 10.2 | 0.948 | > 10 | 0.89 | > 20 | 0.938 | > 40 | 0.979 | > 5.12 | 0.911 | > 5 |
| NCI-H1869 (lung squamous cell carcinoma, adherent) | 0.983 | > 10 | 0.755 | 3.87 | 0.983 | > 10.2 | 0.985 | > 10 | 0.959 | > 20 | 0.893 | > 40 | 0.915 | > 5.12 | 0.903 | > 5 |
| NCI-H1876 (small cell lung carcinoma, adherent) | 0.978 | > 10 | 0.45 | 0.467 | 0.898 | > 10.2 | 0.962 | > 10 | 0.775 | 7.99 | 0.804 | 20.4 | 0.982 | > 5.12 | 0.796 | 2.37 |
| NCI-H1975 (lung adenocarcinoma, adherent) | 0.981 | > 10 | 0.403 | 0.333 | 0.916 | > 10.2 | 0.967 | > 10 | 0.832 | 15.4 | 0.777 | 18.4 | 0.6 | 0.628 | 0.845 | 4.44 |
| NCI-H2081 (small cell lung carcinoma, suspension) | 0.983 | > 10 | 0.727 | 2.95 | 0.935 | > 10.2 | 0.987 | > 10 | 0.889 | > 20 | 0.851 | 33.3 | 0.987 | > 5.12 | 0.901 | > 5 |
| NCI-H2135 (non-small cell lung carcinoma, adherent) | 0.99 | > 10 | 0.638 | 1.52 | 0.989 | > 10.2 | 0.987 | > 10 | 0.99 | > 20 | 0.798 | 18.3 | 0.974 | > 5.12 | 0.991 | > 5 |
| NCI-H2141 (small cell lung carcinoma, suspension) | 0.894 | > 10 | 0.66 | 1.75 | 0.985 | > 10.2 | 0.99 | > 10 | 0.953 | > 20 | 0.863 | 32.9 | 0.991 | > 5.12 | 0.946 | > 5 |
| NCI-SNU-1 (stomach, suspension) | 0.96 | > 10 | 0.489 | 0.598 | 0.974 | > 10.2 | 0.979 | > 10 | 0.821 | 12.1 | 0.594 | 4.57 | 0.985 | > 5.12 | 0.98 | > 5 |
| NCI-SNU-5 (stomach, suspension) | 0.984 | > 10 | 0.973 | > 10.2 | 0.989 | > 10.2 | 0.955 | > 10 | 0.854 | 16.1 | 0.987 | > 40 | 0.968 | > 5.12 | 0.957 | > 5 |
| NCI-SNU-16 (stomach, suspension) | 0.933 | > 10 | 0.991 | > 10.2 | 0.991 | > 10.2 | 0.969 | > 10 | 0.801 | 8.43 | 0.94 | > 40 | 0.283 | 0.0847 | 0.852 | 3.18 |
| NEC8 (testis, adherent) | 0.987 | > 10 | 0.925 | > 10.2 | 0.977 | > 10.2 | 0.975 | > 10 | 0.85 | 11.8 | 0.643 | 5.8 | 0.917 | > 5.12 | 0.894 | 4.39 |
| NH-12 (neuroblastoma, adherent) | 0.971 | > 10 | 0.62 | 1.43 | 0.968 | > 10.2 | 0.978 | > 10 | 0.952 | > 20 | 0.79 | 20.3 | 0.983 | > 5.12 | 0.786 | 2.45 |
| NKM-1 (acute myeloid leukaemia, suspension) | 0.976 | > 10 | 0.155 | 0.0533 | 0.694 | 2.28 | 0.866 | 9.41 | 0.755 | 6.97 | 0.629 | 5.72 | 0.964 | > 5.12 | 0.61 | 0.631 |
| NMC-G1 (glioma, adherent) | 0.884 | > 10 | 0.532 | 0.8 | 0.95 | > 10.2 | 0.98 | > 10 | 0.794 | 11.6 | 0.687 | 9.51 | 0.849 | > 5.12 | 0.9 | > 5 |
| NOMO-1 (acute myeloid leukaemia, suspension) | 0.94 | > 10 | 0.34 | 0.216 | 0.957 | > 10.2 | 0.225 | 0.087 | 0.737 | 6.59 | 0.625 | 5.8 | 0.982 | > 5.12 | 0.762 | 2.02 |
| NOS-1 (osteosarcoma, adherent) | 0.962 | > 10 | 0.409 | 0.341 | 0.638 | 1.68 | 0.838 | 9.13 | 0.804 | 12.9 | 0.609 | 5.36 | 0.576 | 0.543 | 0.839 | 4.59 |
